Data from the RNAGym collection of RNA variant scans (doi:10.1093/nar/gkz1192).
The source gives no read counts; variants with many changes may rest on few reads.

B1: CPEB3 Ribozyme (parent)
chain: UAACAGGGGGCCACAGCAGAAGCGUUCACGUCGCAGCCCCUGUCAGAUUCUGGUGAAUCUGCGAAUUCUGCUGUAUAUCUC

Variants of: B1
Assay: self-cleavage, relative activity (ratio to wild type); higher = more cleavage; in vitro, sequencing
How it was run: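 Libraries of CPEB3 self-cleaving ribozyme mutants came from rounds of error-prone PCR and carried barcodes, which DNA sequencing matched to variants. In vitro transcription used T7 RNA polymerase at 37°C for 5 hours, with a further 15 min in DNase I before EDTA stopped the reaction; the ribozymes cleaved during both steps. The RNA was reverse transcribed with template switching and sequenced on Illumina. Relative activity is the cleaved/total read fraction of a variant divided by that of the unmutated ribozyme, averaged over three batches with at least 5 reads.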

Row | Variant | self-cleavage
1 | A20G U41A A47G A56G | 0.29
2 | A20G U41A A47G A64G U80G | 0.24
3 | A20G U41A U60C | 0.61
4 | A20G U41A U78C | 0.14
5 | A20G U41C A45G U60C | 0.93
6 | A20G U41C U43C C59A U69C A77U | 0.1
7 | A20G U41C U43C U60A U74C | 0.3
8 | A20G U41C U49A A56G | 0.49
9 | A20G U41C U69C | 0.47
10 | A20G U41C U72C | 0.78
11 | A20G U41C U80A | 1.07
12 | A20G U43A A57G A75G | 0.52
13 | A20G U43A G55U | 0.97
14 | A20G U43A U48C A56G A65G | 0.13
15 | A20G U43A U66C | 0.54
16 | A20G U43A U72C U78C | 0.76
17 | A20G U43A U78C U80G | 0.64
18 | A20G U43C A57G | 0.17
19 | A20G U43C A64G U69G | 0.21
20 | A20G U43C G46A U67C | 0.11
21 | A20G U43C G55A U69A | 0.04
22 | A20G U43C U51G A56G U60A U69C U74C | 0.21
23 | A20G U43C U72A U80C | 0.83
24 | A20G U43C U72C | 0.36

Row | Variant | self-cleavage
25 | A20G U43C U80C | 0.56
26 | A20G U48C A56U | 0.2
27 | A20G U48C G52A A56G | 0.23
28 | A20G U48C U58C | 0.15
29 | A20G U48C U78C C81U | 0.2
30 | A20G U48G U72C C79U | 0.14
31 | A20G U49A A56U A64G A75U | 0.94
32 | A20G U49A A64G A75U U80C | 0.43
33 | A20G U49C U54C | 0.43
34 | A20G U49C U54C U60A | 0.01
35 | A20G U49C U54G | 0.12
36 | A20G U49C U58C U69C | 0.14
37 | A20G U49C U60A U74C | 0.07
38 | A20G U49C U60C U78C | 0.3
39 | A20G U51A A56G U76C | 0.73
40 | A20G U51A G63A | 0.85
41 | A20G U51A U60C | 0.16
42 | A20G U51G U60C G61A | 0.32
43 | A20G U51G U78C | 0.89
44 | A20G U54A A56G | 0.38
45 | A20G U54A A77G U80A | 0.96
46 | A20G U54A U60C U78C | 0.41
47 | A20G U54A U67C U72A | 0.56
48 | A20G U54C A57G U72C | 0.5

Row | Variant | self-cleavage
49 | A20G U54C U58A A64G U74C U80C | 0.09
50 | A20G U54G A64G A77U | 0.39
51 | A20G U58A U67C | 0.45
52 | A20G U58C U72A | 0.14
53 | A20G U58C U80A | 0.35
54 | A20G U60A A64G U80A | 0.36
55 | A20G U60A A77G | 0.42
56 | A20G U60A U76C U78A | 0.43
57 | A20G U60A U80C | 0.4
58 | A20G U60C A65C A75G | 0.24
59 | A20G U60G G63C | 0.24
60 | A20G U67A C68G | 0.12
61 | A20G U69A U78A | 0.39
62 | A20G U72C U78C | 0.82
63 | A20G U78C U80C | 0.63
64 | A20U A21G C39U U51G G55A | 0.13
65 | A20U A21G G33U A45U U78C | 0.05
66 | A20U A21G U26A U78C | 0.05
67 | A20U A21G U31C U43C U48C | 0.07
68 | A20U A21G U43C | 0.39
69 | A20U A21U A28U C40U U78C | 0.12
70 | A20U A21U A56U | 0.17
71 | A20U A28G C38U C50U A57G U80C | 0.07
72 | A20U A28G G33U U51A U67C | 0.05

Row | Variant | self-cleavage
73 | A20U A28G U31C U48C U51A A56G | 0.26
74 | A20U A28G U41C C50U A57G U74C | 0.23
75 | A20U A28U A35G G42A U60C U76A U78C | 0.06
76 | A20U A28U A64U U67A G73A U74C A75G | 0.15
77 | A20U A28U U41A A45U A57G U78C | 0.05
78 | A20U A28U U41C U72A | 0.32
79 | A20U A28U U49C | 0.24
80 | A20U A28U U80C | 0.34
81 | A20U A35G U41G A77U | 0.07
82 | A20U A35G U43C U60G U72C U78C | 0.11
83 | A20U A35G U72C | 0.9
84 | A20U A35U A75U | 0.28
85 | A20U A35U G63U A64G | 0.44
86 | A20U A35U U49A U54C G70A U80A | 0.06
87 | A20U A45C U54C | 0.1
88 | A20U A45G C71A U78C | 0.12
89 | A20U A45G U67C | 0.13
90 | A20U A45G U72G | 0.2
91 | A20U A47G U58C | 0.23
92 | A20U A56G A57G U76C | 0.07
93 | A20U A56G G70A | 0.14
94 | A20U A56G U60A | 0.39
95 | A20U A56U U69G U80C | 0.11
96 | A20U A57G C62U A75G | 0.12

Row | Variant | self-cleavage
97 | A20U A57G G61A | 0.16
98 | A20U A57G U72A | 0.15
99 | A20U A57G U72C | 0.21
100 | A20U A57G U78C | 0.23
101 | A20U A64U A65G | 0.12
102 | A20U A64U A77G | 0.13
103 | A20U C23A C27A U51A U60C | 0.08
104 | A20U C23G A28U A56U | 0.16
105 | A20U C23G U54C | 0.16
106 | A20U C27A U54G U60C G73A | 0.11
107 | A20U C29U G52A U58C | 0.05
108 | A20U C29U U66A A75U | 0.12
109 | A20U C32A U41C A45G A75U | 0.08
110 | A20U C32U G52A A56U A57G U76G | 0.09
111 | A20U C32U U54C A57U U72C | 0.1
112 | A20U C34A U43C U60A A75G | 0.03
113 | A20U C34G C68A | 0
114 | A20U C34G U67C | 0.04
115 | A20U C37U G63A U67C | 0.12
116 | A20U C37U U49A U69C | 0.06
117 | A20U C38G A45G U54A C59A C81A | 0.02
118 | A20U C38U U58G | 0.05
119 | A20U C39U A56U | 0.18
120 | A20U C40A U67C | 0.06

Row | Variant | self-cleavage
121 | A20U C44U U51C A64G U80C | 0.07
122 | A20U C62U U69A U72C | 0.22
123 | A20U C68G U80C | 0.06
124 | A20U G22C C40U U58C U76C U78C | 0.05
125 | A20U G22C U43C A45U U49A | 0.07
126 | A20U G24C U25C U31C | 0.11
127 | A20U G24U U78C | 0.4
128 | A20U G30U C32U A47C U51G | 0.03
129 | A20U G33A C34U U43C A57G U69C | 0.11
130 | A20U G36U U60C U69C | 0.05
131 | A20U G42A A57U A64G | 0.06
132 | A20U G42A G70A | 0.12
133 | A20U G46U C50U A56G U67C U69G | 0.11
134 | A20U G52C A64U | 0.24
135 | A20U G61U A65G U66C U69A | 0.47
136 | A20U U25A A28G C40U U41G U78C | 0.15
137 | A20U U25A U43C G63C | 0.21
138 | A20U U25A U48A U54C | 0.04
139 | A20U U25C A45U U54C U80C | 0.15
140 | A20U U25C A56G | 0.34
141 | A20U U25C C32A A47U U72C U78A | 0.11
142 | A20U U25C C40U A47U A64U | 0.15
143 | A20U U25C G30C A56U | 0.1
144 | A20U U25C G61A A64G | 0.12

Row | Variant | self-cleavage
145 | A20U U25C U26C | 0.07
146 | A20U U25C U31C U66C U69C U78C | 0.04
147 | A20U U25C U51G U80A | 0.12
148 | A20U U25G G30A U67C U78A | 0.11
149 | A20U U26A U41C A56U U60A | 0.15
150 | A20U U26A U76C U78C | 0.2
151 | A20U U26C A28G U48C | 0.24
152 | A20U U26C A35G U48C A64G U66G A75G | 0
153 | A20U U26C C27U A56G | 0.15
154 | A20U U26C C29U U49C | 0.07
155 | A20U U26C C39U U43C U54C U67C | 0.08
156 | A20U U26C U31C A35G U48A U49A U58C | 0.1
157 | A20U U26C U41C | 0.26
158 | A20U U26C U41C C71A A75C | 0.11
159 | A20U U26C U43G A64G U72C | 0.07
160 | A20U U26C U48C A77G | 0.1
161 | A20U U26G A28G C29A U66C | 0
162 | A20U U26G U43C U48C A64G U72C | 0.27
163 | A20U U31A A35G A45C U54G U72C U78C | 0.06
164 | A20U U31A A35G U66C A77G | 0.42
165 | A20U U31A G36A G53A U80G | 0.07
166 | A20U U31A U58A U66C | 0.06
167 | A20U U31C A35U U51A U80C | 0.48
